From the supplement of paper PMC4967469
IC50 is the fitted dose that halves viability relative to control wells, and lower means more sensitive; fits outside the tested doses are given as limits. The AUC spans the tested range (256-fold, ending at the top dose) of the same fit; the more sensitive the line, the further below 1. A top dose marked as inferred is not printed in the source and was worked back from the curve model.

Tests used:
Assay in all cases: Viability of human cancer cell lines after 72 h of drug (GDSC screen)
PFI-1 = compound: COc1ccccc1S(=O)(=O)Nc1ccc2c(c1)CN(C)C(=O)N2 [PFI-1]; conditions: top dose 10 µM; top dose inferred
Protocol: (§1)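 Human cancer cell lines in 384-well plates, medium with 10% serum, drug for 72 h over a 256-fold dose range (nine 2-fold or five 4-fold steps up to the top dose). Adherent lines were fixed and stained with the nucleic acid dye Syto60, suspension lines read with resazurin; signal relative to control wells, capped at 0 and 100%. One two-parameter sigmoid per drug and line, fitted in a mixed model over all curves with the slope shared within a line.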

NG-25 = compound: CCN1CCN(Cc2ccc(NC(=O)c3ccc(C)c(Oc4ccnc5[nH]ccc45)c3)cc2C(F)(F)F)CC1 [NG-25]; conditions: top dose 10.24 µM; top dose inferred
Protocol: as §1

BMS-509744 = compound: COc1cc(C)c(Sc2cnc(NC(=O)c3ccc(CNC(C)C(C)(C)C)cc3)s2)cc1C(=O)N1CCN(C(C)=O)CC1 [BMS-509744]; conditions: top dose 10.24 µM; top dose inferred
Protocol: as §1

GSK-1904529A = compound: CCc1cc(Nc2nccc(-c3c(-c4ccc(OC)c(C(=O)Nc5c(F)cccc5F)c4)nc4ccccn34)n2)c(OC)cc1N1CCC(N2CCN(S(C)(=O)=O)CC2)CC1 [GSK-1904529A]; conditions: top dose 1.024 µM; top dose inferred
Protocol: as §1

Tipifarnib = compound: Cn1cncc1[C@@](N)(c1ccc(Cl)cc1)c1ccc2c(c1)c(-c1cccc(Cl)c1)cc(=O)n2C [Tipifarnib]; conditions: top dose 16 µM; top dose inferred
Protocol: as §1

Cell Line	AUC (PFI-1)	IC50 (PFI-1)	AUC (NG-25)	IC50 (NG-25)	AUC (BMS-509744)	IC50 (BMS-509744)	AUC (GSK-1904529A)	IC50 (GSK-1904529A)	AUC (Tipifarnib)	IC50 (Tipifarnib)
ATN-1 (T-cell lymphoblastic leukaemia, suspension)	0.915	> 10 µM	0.878	9.25 µM	0.817	5.25 µM	0.985	> 1.02 µM	0.652	2.56 µM
EB-3 (Burkitt lymphoma, suspension)	0.813	6.53 µM	0.678	2.2 µM	0.91	> 10.2 µM	0.976	> 1.02 µM	0.738	5.43 µM
NKM-1 (acute myeloid leukaemia, suspension)	0.827	6.33 µM	0.122	< 0.04 µM	0.87	–	0.984	> 1.02 µM	0.457	0.76 µM
697 (lymphoblastic leukaemia, suspension)	0.681	1.78 µM	0.553	0.867 µM	0.833	4.85 µM	0.988	> 1.02 µM	0.523	1.14 µM
MFH-ino (soft tissue, adherent)	0.897	> 10 µM	0.895	> 10.2 µM	0.735	3.43 µM	0.982	> 1.02 µM	0.345	0.344 µM
L-1236 (Hodgkin lymphoma, suspension)	0.77	3.23 µM	0.923	> 10.2 µM	0.953	> 10.2 µM	0.992	> 1.02 µM	0.92	> 16 µM
MFM-223 (breast, adherent)	0.943	> 10 µM	0.729	2.85 µM	0.987	> 10.2 µM	0.989	> 1.02 µM	0.891	> 16 µM
NCI-SNU-1 (stomach, suspension)	0.984	> 10 µM	0.691	2.24 µM	0.883	> 10.2 µM	0.988	> 1.02 µM	0.745	5.18 µM
D-283MED (medulloblastoma, adherent)	0.943	> 10 µM	0.991	> 10.2 µM	0.931	> 10.2 µM	0.991	> 1.02 µM	0.847	10.3 µM
MZ1-PC (pancreas, adherent)	0.868	> 10 µM	0.625	1.54 µM	0.754	4.21 µM	0.978	> 1.02 µM	0.638	2.64 µM
BC-1 (B-cell lymphoma, suspension)	0.649	1.51 µM	0.803	4.21 µM	0.902	9.86 µM	0.977	> 1.02 µM	0.238	0.202 µM
NCI-H1417 (small cell lung carcinoma, suspension)	0.734	3.36 µM	0.921	> 10.2 µM	0.934	> 10.2 µM	0.982	> 1.02 µM	0.941	> 16 µM
NCI-H747 (large intestine, adherent)	0.863	> 10 µM	0.826	8.1 µM	0.765	4.56 µM	0.979	> 1.02 µM	0.557	1.48 µM
HAL-01 (lymphoblastic leukaemia, suspension)	0.744	2.82 µM	0.59	1.09 µM	0.967	> 10.2 µM	0.989	> 1.02 µM	0.781	5.83 µM
EW-11 (Ewing sarcoma, adherent)	0.842	> 10 µM	0.821	8.3 µM	0.85	> 10.2 µM	0.971	> 1.02 µM	0.884	> 16 µM
NCI-H187 (small cell lung carcinoma, suspension)	0.986	> 10 µM	0.961	> 10.2 µM	0.878	> 10.2 µM	0.984	> 1.02 µM	0.975	> 16 µM
H9 (lymphoid neoplasm, suspension)	0.783	3.44 µM	0.866	6.58 µM	0.929	> 10.2 µM	0.989	> 1.02 µM	0.696	3.15 µM
SK-MEL-2 (melanoma, adherent)	0.924	> 10 µM	0.987	> 10.2 µM	0.956	> 10.2 µM	0.986	> 1.02 µM	0.439	0.678 µM
KINGS-1 (glioma, adherent)	0.939	> 10 µM	0.823	9.3 µM	0.879	> 10.2 µM	0.964	> 1.02 µM	0.833	> 16 µM
HCC2157 (breast, suspension)	0.889	> 10 µM	0.98	> 10.2 µM	0.967	> 10.2 µM	0.914	> 1.02 µM	0.379	0.456 µM
MOLM-13 (acute myeloid leukaemia, suspension)	0.775	3.71 µM	0.092	< 0.04 µM	0.745	3.04 µM	0.986	> 1.02 µM	0.674	2.95 µM
RPMI-8402 (T-cell lymphoblastic leukaemia, suspension)	0.782	3.49 µM	0.672	1.77 µM	0.847	5.79 µM	0.974	> 1.02 µM	0.512	1.07 µM
